± gives the standard deviation. This is a selection; strong and weak results do not stand in their true shares.
System: MIWI (PIWIL1) piRISC loaded with L1MC piRNA (30 nt)
Assay: pre-steady-state target cleavage rate (min^-1); MIWI and MILI are mouse PIWI proteins and EfPiwi is from a freshwater sponge; tags in brackets are library labels; higher = faster piRNA-guided slicing of the target
Settings: guide: L1MC piRNA 5'p-UAACUAAAUACUAUGCAAGCUGUAGGUCCU; auxiliary factor: 500 nM mouse GTSF1
How it was run: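 Three pooled Cleave-'n-Seq trials supplied the data, with k3 capped at 0.0001 min^-1. In each, […] transcribed, DNA-blocked target RNA library and 1 nM active affinity-purified piRISC with one synthetic guide reacted in HEPES–potassium acetate buffer at 33 °C for 0–8 or 0–960 min, with or without 500 nM GTSF1 partner protein. Uncleaved targets were sequenced and normalised to depth and to weakly complementary targets. A burst-and-steady-state fit provided the pre-steady-state cleavage rate.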
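Also: 1 nM active piRISC with 0.1 nM target library at 33 °C single turnover.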

Compared with UCCUGGAUGUGCUUGCAUACUAAUUAGUUA, UCCUGGAUGUCCUAGCAUAGUAUUUAGUUA is higher in “pre-steady-state target cleavage rate” value: 0.00673 ± 0.0036 for the first, 0.0213 ± 0.0065 for the second.

Going from UCCUGGAUGUGCUUGACAUAGUAUUUAGUUA to UCCUGCAUGAGCUUGCAUAGUAUUUUCAAA, the “pre-steady-state target cleavage rate” value rises from 0.0551 ± 0.0082 to 0.113 ± 0.024.

First: UCCUGGAUGUCCUUGCAUAGUUUUUAGUAA
Second: UGGACCUACAGCAACCAUAGUAUUUAGUUA
The “pre-steady-state target cleavage rate” value of the first is lower: 0.00677 ± 0.0037 for the first, 0.225 ± 0.026 for the second.

UCCUGGAUGUCGAAGCAUAGUAUUUUGUUA and UCCUGGAUGUCCUUGCAUUGUAUUUUGUUA are within error of each other in “pre-steady-state target cleavage rate” value: 0.00423 ± 0.0028 for the first, 0.00605 ± 0.0049 for the second.

Going from UCCUGGAUGUGCUUGCAUAGUAUAUAGAUA to AGGACCUACAGGAUGCAUAGUAUUUACAAA, the “pre-steady-state target cleavage rate” value rises from 0.00749 ± 0.0037 to 0.291 ± 0.041.

Going from UCCACCUACAGCUUGCAUAGUAUGUAGUUA to UCCUGGUACAGCUUGCAUAGUAUUAUGAAA, the “pre-steady-state target cleavage rate” value falls from 0.231 ± 0.047 to 0.119 ± 0.037.

Going from UGGACCUACAGCUUCGAUAGUAUUUACAAA to UCCACCUACAGCUACCAUAGUAUUUAGUAA, the “pre-steady-state target cleavage rate” value rises from 0.00855 ± 0.0027 to 0.211 ± 0.034.

First: UCCUGGAUGUGCUUGGAUAGUAUUUAGAAA
Second: UGGACCUACAGCUUGCAAUCUAUUUAGAAA
The “pre-steady-state target cleavage rate” value of the first is lower: 0.00431 ± 0.0033 for the first, 0.0171 ± 0.0057 for the second.

UCCUGCUAGAGCUUGCAUAGUAUUUUCAAA and UCCUGGAUGAGCUUGGUUAGUAUUUAGUAA are within error of each other in “pre-steady-state target cleavage rate” value: 0.104 ± 0.027 for the first, 0.0792 ± 0.013 for the second.

UCGACCUACAGCUUGCAUAGUUAAUAGAAA and AGGACCUACAGCUUGCAUACAAUUUAGUAA are within error of each other in “pre-steady-state target cleavage rate” value: 0.194 ± 0.054 for the first, 0.185 ± 0.069 for the second.

First: UCCUGGAUCAGCUUCCAUAGUAUUUUGUUA
Second: UCCUCCUACAGCUAGCAUAGUAUUUACAAA
The “pre-steady-state target cleavage rate” value of the first is lower: 0.0116 ± 0.0052 for the first, 0.265 ± 0.036 for the second.

UCCUGGAUGUCCUUGGAUAGUUUUUAGUUA and UCCUGGAUGUCGAAGCAUAGUAUUUACGUUA are within error of each other in “pre-steady-state target cleavage rate” value: 0.00494 ± 0.0029 for the first, 0.00575 ± 0.003 for the second.
